The test system of the experiment is NCI-H322M lung. As to the kind of experiment: NCI anticancer screen, dose series, 48 h.

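Assay format: 96-well plates, 48-hour exposure. GI50 is the concentration that inhibits growth by half. TGI is the concentration that stops growth completely.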

As for `CC(C)(C)c1ccc(NCc2cn(-c3ccc(C(=O)O)cc3)nc2-c2ccc(C#N)cc2)cc1`, the GI50 is 9.84 µM and the TGI turned out to be 23.6 µM.

For the compound `COc1ccc(OC)c(-c2cc(-c3c[nH]c4ccccc34)nc(N)c2C#N)c1`, the GI50 is 5.76 µM and the TGI is 19.1 µM.

The values are drawn from PubChem BioAssay (NCI).
